Laboratory results reported in PubChem BioAssay (Tox21).
This list was built around the results that the source calls inconclusive (neither active nor inactive); the mix of calls is not that of the screen. No potency is given beside an inconclusive call; the fits are too rough. Calls of active or inactive are those of the source. Unless noted, calls follow the shape of the full dose curve.
% is scaled to controls: 0 for no effect and ±100 for the full control effect; potency is read from the fitted curve at half-maximal effect; tags tell the direction and shape of the fitted curve or compound fluorescence and quenching.

Assay: qHTS assay to identify small molecule agonists of the NFkB signaling pathway - cell viability counter screen (AID 1159515); also: nearly all actives have a fitted effect of over 55% in size
Conditions: NFkB-bla ME-180 viability, CellTiter-Glo luminescence, 5 h; series mostly up to 61 µM; activity, negative = cytotoxic: at the top concentration
How it was run: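 Using the same wells as the NFkB reporter read, ME-180 NFkB-bla cells given compounds for 5 hr were assessed for viability via CellTiter-Glo, with luminescence taken after a 30 min room-temperature incubation.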
For `C=COCC(C)C`, the Potency was inconclusive [rising, partial curve, poor fit]. For `O=C=NCC1CCCC(CN=C=O)C1` (stereo unspecified), the “activity, negative = cytotoxic” value was inactive: -2.04%. In the case of `O=C(/C=C/C=C/c1ccc2c(c1)OCO2)N1CCCCC1`, the Potency was inconclusive [cytotoxic, partial curve, poor fit]. For `O=C(OC(=O)c1ccccc1)c1ccccc1`, the Potency was inconclusive [rising, partial curve, poor fit]. For `CCCCC[C@H](O)/C=C/[C@H]1[C@H](O)CC(=O)[C@@H]1C/C=C\CCCC(=O)O`, the “activity, negative = cytotoxic” value was inactive: -0.0819%. With `CO[Si](C)(C)OC` the “activity, negative = cytotoxic” value was inactive: -2.25%. With `CC1COC(=O)O1` (stereo unspecified) the Potency was inconclusive [rising, single point]. With `CCCCCCOc1ccccc1C(N)=O` the “activity, negative = cytotoxic” value was inactive: 0.145%. For `CCCCCCCCCC(=O)N(C)C`, the Potency was inconclusive [rising, partial curve, poor fit]. In the case of `c1cnc2c(n1)CCCC2`, the “activity, negative = cytotoxic” value was inactive: 6.91%. In the case of `OCC(O)CN1CCN(c2ccccc2)CC1` (stereo unspecified), the “activity, negative = cytotoxic” value was inactive: 1.73%. With `Cn1cnc2ncnc(N)c21` the Potency was inconclusive [cytotoxic, single point].

Assay: qHTS assay to identify small molecule agonists of the endoplasmic reticulum stress response signaling pathway (AID 1159516; active = well fitted activation curve with a large enough effect in the signal ratio in the repeat runs, not every such curve was filed as active; inconclusive = weak or mixed curves, or effect the other way; the % refers to the signal ratio)
Conditions: ESRE-bla HeLa, ER stress beta-lactamase reporter, 5 h; activation: at 61 µM (top of the series) unless noted
How it was run: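 An ESRE-bla HeLa cell assay: compounds were pin-transferred from DMSO onto overnight-plated cells and left 5 hr at 37 C. Substrate was then loaded for 2 hr at room temperature before reading fluorescence at 460 nm and 530 nm.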
In the case of `CCOC(=O)c1ccc(C#Cc2ccc3c(c2)C(C)(C)CCS3)nc1`, the activation was inconclusive: 8.55%. With `O=C=Nc1ccc(Cl)c(Cl)c1` the Potency was inconclusive [falling, single point]. For `COC(=O)CC(C)CCC=C(C)C` (stereo unspecified), the “activation” value was inactive: 2.8%. With `CCOC(=O)[C@H](CCc1ccccc1)N[C@H]1CCc2ccccc2N(CC(=O)O)C1=O` the Potency was active: 21.3 µM. For `Fc1ccccc1`, the “activation” value was inactive: 1.03% [at 78.8 µM]. In the case of `CC1=C(Br)C(=O)C(Br)=C/C1=C(/c1ccccc1S(=O)(=O)O)c1cc(Br)c(O)c(Br)c1C`, the Potency was inconclusive [falling, full curve]. With `Cc1oc(=O)oc1COC(=O)[C@@H]1N2C(=O)[C@@H](NC(=O)[C@H](N)c3ccccc3)[C@H]2SC1(C)C` the activation was inconclusive: 13%. In the case of `C[N+](C)(C)CC[N+]1(C)Cc2c(Cl)c(Cl)c(Cl)c(Cl)c2C1`, the “activation” value was inactive: -1.05%. In the case of `CCCCCCCC/C=C\CCCCCCCC(=O)OC`, the “activation” value was inactive: 0.126%. For `CCc1cc(Cl)c(OC)c(C(=O)NC[C@@H]2CCCN2CC)c1O`, the “activation” value was inactive: 2.04%. In the case of `CCOC(=O)Cn1cccc1-c1nc(-c2ccc(OC)cc2)c(-c2ccc(OC)cc2)s1`, the Potency was inconclusive. In the case of `Cc1c(C(N)=O)cc([N+](=O)[O-])cc1[N+](=O)[O-]`, the Potency was “inactive”. In the case of `O=C(O)Cc1ccc(OCCNC[C@H](O)c2ccccc2)cc1`, the “activation” value was inactive: -4.66%. In the case of `CC/C=C1/OC(=O)c2ccccc21`, the Potency was inconclusive [rising, single point]. With `Nc1c(Cl)cc(Cl)cc1Cl` the Potency was inconclusive [rising, partial curve]. For `OC/C=C/CO`, the Potency was inconclusive [falling, full curve]. With `COc1ccc(C(=O)c2ccccc2)c(O)c1` the Potency was inconclusive [fluorescent, partial curve, poor fit]. In the case of `C=CC(=O)[O-].C=CC(=O)[O-].[Zn+2]`, the Potency was inconclusive [activator, single point]. For `Cc1cccc(N(C)C(=S)Oc2ccc3c(c2)CCC3)c1`, the Potency was inconclusive [rising, partial curve]. In the case of `CCCCCCOC(=O)CCCCC`, the activation was inconclusive: 2.07%. For `O=C=Nc1cccc(C(F)(F)F)c1`, the “activation” value was inactive: 1.9%. In the case of `O=c1cc(-c2ccccc2)oc2cc(O)cc(O)c12`, the “activation” value was inactive: -6.48%. With `Oc1cc2c(cc1O)[C@H]1c3ccc(O)c(O)c3OC[C@@]1(O)C2` the Potency was inconclusive. For `C=COCC(C)C`, the “activation” value was inactive: -5.19% [at 78.8 µM]. For `O=C(/C=C/C=C/c1ccc2c(c1)OCO2)N1CCCCC1`, the activation was inconclusive: 2.15%. In the case of `CCCCC[C@H](O)/C=C/[C@H]1[C@H](O)CC(=O)[C@@H]1C/C=C\CCCC(=O)O`, the Potency was inconclusive [fluorescent, partial curve, poor fit]. For `CC1COC(=O)O1` (stereo unspecified), the Potency was inconclusive [rising, single point]. For `CCCCCCCCCC(=O)N(C)C`, the Potency was inconclusive [rising, full curve, poor fit]. In the case of `OCC(O)CN1CCN(c2ccccc2)CC1` (stereo unspecified), the “activation” value was inactive: 0.276%.
